Reference: PubChem BioAssay AID624418 (National Center for Advancing Translational Sciences (NCATS), 2012)
The campaign covered roughly 410,000 compounds. About 530 (0.13%) were called active. Inconclusive means that the source gave no clear call. Such entries were picked first, then a sample of the others. Calls come from the whole dose curve; as a rule, active = well fitted inhibition curve with a large enough effect; inconclusive = small, poorly fitted or top-dose-only effect, or another doubt; inactive = no such curve, though single readings can be large or run the other way. Potencies of inconclusive entries are doubtful fits and often do not repeat.

Test: qHTS of GLP-1 Receptor Inverse Agonists: Cytotox Screen
Conditions: HEK293 cAMP-luciferase reporter cells, luminescence, 24 h; series mostly up to 38.3 µM
In short: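 A 23 nL compound transfer followed 12 hours of cell culture at 37 deg C; exposure then lasted 24 hr. Luciferase assay detection reagent was dispensed and plates read for luminescence after a 12 min room-temperature wait.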
Potency is the fitted concentration of half-maximal effect.

Question: For `CCOC(=O)[C@]12Cc3ccccc3[C@H]1N(C1CCCCC1)C(=O)c1cc(OC)ccc12`, which Potency is on record?
Answer: inconclusive: 28.2 µM [inhibitor, single point]

Question: Which Potency does the source give for `COc1ccc(NC2=NCC(C)S2)cc1` (centres undefined) here?
Answer: inconclusive: 28.2 µM [inhibitor, single point]

Question: With `NS(=O)(=O)c1ccc(Sc2nc3ccccc3s2)c([N+](=O)[O-])c1` as the compound, how does the Potency read?
Answer: inconclusive: 3.55 µM [inhibitor, full curve, poor fit]

Question: Which Potency does the source give for `C[C@@H]1CN([C@H](C)CO)C(=O)Cc2cc(NC(=O)Nc3ccccc3)ccc2O[C@@H]1CN(C)Cc1ccc2c(c1)OCO2` here?
Answer: inconclusive: 28.2 µM [inhibitor, single point]

Question: For `COC(=O)NC(=C(Cl)Cl)S(=O)(=O)c1ccccc1`, which Potency is on record?
Answer: inconclusive: 28.2 µM [inhibitor, single point]

Question: Which Potency does the source give for `Cc1cccc(CNCCc2c[nH]c3ccccc23)c1` here?
Answer: inconclusive: 22.4 µM [inhibitor, single point]

Question: For `c1ccc2c(CNC3CCCCCC3)c[nH]c2c1`, which Potency is on record?
Answer: inconclusive: 28.2 µM [inhibitor, single point]

Question: With `OCC[n+]1c2ccccc2nc2ccc(N3CCOCC3)cc21` as the compound, how does the Potency read?
Answer: inconclusive: 14.1 µM [inhibitor, single point]

Question: Which Potency does the source give for `COC(=O)C1CN(C#N)N(c2ccc(Cl)cc2)C12c1ccccc1-c1ccccc12` (centres undefined) here?
Answer: inconclusive: 2.82 µM [inhibitor, full curve]

Question: With `C=CCn1c(O)c(C(C)=NCCN2CCCCC2)c(=O)[nH]c1=O` as the compound, how does the Potency read?
Answer: inconclusive: 28.2 µM [inhibitor, single point]

Question: With `O=C(NCC1=C(c2ccc3ccccc3c2)C[C@@H]2CC[C@H]1N2Cc1ccco1)c1ccncc1` as the compound, how does the Potency read?
Answer: inactive

Question: For `COc1cccc(C(=O)Nc2ccc3nc(SCC(=O)N(C)c4ccccc4)sc3c2)c1`, which Potency is on record?
Answer: inconclusive: 10 µM [inhibitor, partial curve]

Question: With `COC(=O)C1=C(C)N(Cc2ccccc2)C(=NCC(C)C)N[C@H]1c1cccc(C(F)(F)F)c1` as the compound, how does the Potency read?
Answer: inconclusive: 12.6 µM [inhibitor, partial curve, poor fit]

Question: With `N/N=C/C(=N\Nc1ccc(Cl)cc1)C(=O)c1ccncc1` as the compound, how does the Potency read?
Answer: inconclusive: 28.2 µM [inhibitor, single point]

Question: Which Potency does the source give for `CCN(CC)S(=O)(=O)c1ccc(C)c(NC(=O)CSc2ncc(C(F)(F)F)cc2Cl)c1` here?
Answer: inconclusive: 22.4 µM [inhibitor, single point]

Question: With `CCN(Cc1nc2cc(Cl)ccc2c(=O)[nH]1)C(=O)c1cccc(OCc2c(C)noc2C)c1` as the compound, how does the Potency read?
Answer: inconclusive: 22.4 µM [inhibitor, single point]

Question: Which Potency does the source give for `CCOC(=O)N(C)c1ccc(C(O)(C(=O)OCC)C(F)(F)F)cc1` (centres undefined) here?
Answer: inactive

Question: For `COCCCn1c(N)c(C(=O)OCCOC)c2nc3ccccc3nc21`, which Potency is on record?
Answer: inactive

Question: Which Potency does the source give for `CC(C)C(=O)NC(=S)N(Cc1ccccc1)Cc1ccccc1` here?
Answer: inconclusive: 10 µM [inhibitor, single point]

Question: Which Potency does the source give for `Cc1cc(NC(=O)CCCS(=O)(=O)c2nc(-c3cccs3)cc(C(F)(F)F)n2)no1` here?
Answer: inconclusive: 10 µM [inhibitor, partial curve, poor fit]

Question: Which Potency does the source give for `O=c1[nH]c2ccccc2n1C1CCN(C(c2ccccc2OC(F)(F)F)c2nnnn2-c2ccc3c(c2)OCCO3)CC1` (centres undefined) here?
Answer: inconclusive: 7.08 µM [inhibitor, partial curve, poor fit]

Question: Which Potency does the source give for `COC(=O)C1=C(c2ccc(OC(F)(F)F)cc2)C[C@@H]2CC[C@H]1N2C(=O)NCc1cccc2ccccc12` here?
Answer: inactive

Question: With `COC(=O)C1=C(c2ccc(F)cc2OCc2ccccc2)C[C@@H]2CC[C@H]1N2C(=O)NCc1ccc(N(C)C)cc1` as the compound, how does the Potency read?
Answer: inactive

Question: For `Cc1ccc(C2C(=O)NC(=O)NC2=O)cc1`, which Potency is on record?
Answer: inconclusive: 28.2 µM [inhibitor, single point]

Question: With `Clc1ccc(C(c2ccc(Cl)cc2)n2cc[n+](CC(OCc3ccc(Cl)cc3Cl)c3ccc(Cl)cc3Cl)c2)cc1` (centres undefined) as the compound, how does the Potency read?
Answer: inconclusive: 28.2 µM [inhibitor, single point]

Question: With `CCN1C(=O)NC(=O)/C(=C/c2cc(C)n(-c3sc(C)c(C)c3C#N)c2C)C1=O` as the compound, how does the Potency read?
Answer: inconclusive: 22.4 µM [inhibitor, single point]

Question: Which Potency does the source give for `COc1cc2ccccc2cc1C(=O)N(CCN(C)C)c1nc2c(OC)ccc(OC)c2s1` here?
Answer: inconclusive: 12.6 µM [inhibitor, single point]

Question: With `CS(=O)(=O)N(Cc1ccccc1)c1ccc(C(=O)Nc2ccc(Cl)cc2)cc1` as the compound, how does the Potency read?
Answer: inconclusive: 10 µM [inhibitor, single point]

Question: Which Potency does the source give for `COc1ccc2c(c1)[nH]c1c(=O)n(/N=C/c3ccc(OC)c(CN4CCCC4)c3)cnc12` here?
Answer: inconclusive: 12.6 µM [inhibitor, single point]

Question: Which Potency does the source give for `O=C1CCC(C(=O)N2CCCC(C(=O)c3ccc4ccccc4c3)C2)=NN1` (centres undefined) here?
Answer: inconclusive: 28.2 µM [inhibitor, partial curve, poor fit]

Question: For `CC1(C)C2CC=C(CN3CCOCC3)C1C2` (centres undefined), which Potency is on record?
Answer: inactive

Question: With `O=C1C(=O)c2cccc3cccc1c23` as the compound, how does the Potency read?
Answer: inactive

Question: With `COc1cccc(Cl)c1NC(=O)N1CCN(c2cc(C)nc3ccccc23)CC1` as the compound, how does the Potency read?
Answer: inconclusive: 12.6 µM [inhibitor, single point]

Question: For `Cc1ccc(S(=O)(=O)NP(=O)(Oc2ccccc2)Oc2ccccc2)cc1`, which Potency is on record?
Answer: inconclusive: 28.2 µM [inhibitor, single point]

Question: Which Potency does the source give for `CCOC(=O)c1cccc(C2=C(CNC(=O)c3nccs3)[C@H]3CC[C@@H](C2)N3Cc2ccccc2)c1` here?
Answer: inconclusive: 3.55 µM [inhibitor, partial curve]

Question: With `Cc1ccc(-n2cc(CNCCc3ncc(C)[nH]3)c(-c3ccc(F)cc3)n2)cc1` as the compound, how does the Potency read?
Answer: inconclusive: 11.2 µM [inhibitor, single point]

Question: For `CC1CCc2[nH]c3ccc(C(=O)N(C)CC(=O)Nc4ccccc4Br)cc3c2C1` (centres undefined), which Potency is on record?
Answer: inconclusive: 11.2 µM [inhibitor, single point]

Question: With `CCOP(=O)(OCC)C(O)c1ccc(OC)cc1OC` (centres undefined) as the compound, how does the Potency read?
Answer: inconclusive: 28.2 µM [inhibitor, single point]

Question: With `CCCCCCN1C[C@@H](n2cc(C3CC3)nn2)[C@H](O)C[C@@H]1c1ccc(C)cc1` as the compound, how does the Potency read?
Answer: inconclusive: 10 µM [inhibitor, partial curve]
